Data taken from PubChem BioAssay (NCATS).
This list was built around the results that the source calls inconclusive (neither active nor inactive); the mix of calls is not that of the screen. Potencies beside an inconclusive call are fits to weak or partial responses and may not hold up. Activity calls are given as the source filed them. Unless noted, calls come from the whole dose curve; as a rule, active = well fitted curve in the direction sought with a large enough effect; inconclusive = small, poorly fitted or top-dose-only effect, or another doubt; inactive = no such curve, though single readings can be large; an effect the other way counts as inactive or inconclusive.

Assays:
[1] = qHTS screen for small molecules that inhibit ELG1-dependent DNA repair: Hit Confirmation in Cell-Based Luciferin Assay (AID 624247)
Procedure, shortened: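 Luciferin substrate reagent dispensed first, then compounds or DMSO vehicle pin-transferred, then luciferase enzyme added; luminescence read on a CCD-based plate reader.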

[2] = target: ATPase family AAA domain-containing protein 5 (Homo sapiens) (UniProt Q96QE3); assay: HTS assay for small molecules that inhibit ELG1-dependent DNA repair in human embryonic kidney (HEK293T) cells expressing luciferase-tagged ELG1: Hit Confirmation (AID 624248); note: nearly all actives have a fitted effect of over 55% in size
Procedure, shortened: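 Suppression of ELG1-luciferase signal was read by ONE-Glo luminescence in HEK293T reporter cells after 16 h at 37 C co-treatment with compound and 5-fluorouridine as DNA-damaging agent.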

[3] = qHTS screen for small molecules that inhibit ELG1-dependent DNA repair: Hit Confirmation with 5FU Viability (AID 624250)
Procedure, shortened: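 ELG1-luc HEK293T cells, 2000/well, received compounds about 5 h after plating, together with 5-fluorouridine at 10 µM final. Viability read by CellTiter-Glo 16 h after compound addition.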

[4] = qHTS screen for small molecules that inhibit ELG1-dependent DNA repair: Hit Confirmation with MMS Viability (AID 624251); note: nearly all actives have a fitted effect of over 60% in size
Procedure, shortened: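 Under 10 µM MMS, compounds were tested on ELG1-luc HEK293T cells seeded at 2,000 cells/well; survival was determined by CellTiter-Glo luminescence 16 h post-addition.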

[5] = target: Luciferin 4-monooxygenase (Photinus pyralis) (UniProt P08659); assay: qHTS screen for small molecules that inhibit ELG1-dependent DNA repair: Hit Confirmation in Biochemical Luciferin Assay (AID 624253)
Procedure, shortened: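 Counter-screen against purified firefly luciferase: substrate reagent dispensed first, then compound or DMSO by pintool, then luciferase enzyme added. Luminescence read on a CCD-based imager.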

[6] = target: ATPase family AAA domain-containing protein 5 (Homo sapiens) (UniProt Q96QE3); assay: qHTS screen for small molecules that inhibit ELG1-dependent DNA repair in human embryonic kidney (HEK293T) cells expressing luciferase-tagged ELG1: Hit Confirmation using MMS Stimulated ELG1 (AID 624249); note: nearly all actives have a fitted effect of over 60% in size
Procedure, shortened: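 HEK293T ELG1-luc, 2,000 cells/well; ~5 h post-seed: cpd + MMS (10 µM final); 16 h; luc read w/ Amplight.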

[7] = qHTS Assay for Identification of Small Molecule Agonists for Hypoxia Response Element Signaling Pathway (AID 914; active = well fitted activation curve with a large enough effect in the signal ratio, with a control signal flat, not every such curve was filed as active; inconclusive = small, poorly fitted or top-dose-only effect, or effect the other way, or a change in a side signal; the % refers to the signal ratio); conditions: ME-180 (cervical carcinoma) HRE-bla reporter, beta-lactamase ratio, CoCl2, 17 h; activation: stronger effect = higher value
Procedure, shortened: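 HRE-bla ME-180 cells with beta-lactamase reporter under hypoxia response element, compounds with EC50 CoCl2 for 17 hours at 37 C. CCF4 substrate, 460nm/530nm emission ratio gave %Activity; AC50 from titration series.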
Potency is the fitted concentration of half-maximal effect; tags give direction and shape of the fitted curve or compound fluorescence and quenching.

UniProt Q96QE3, sequence (Q96QE3 whole entry, looked up, the tested form may be a part): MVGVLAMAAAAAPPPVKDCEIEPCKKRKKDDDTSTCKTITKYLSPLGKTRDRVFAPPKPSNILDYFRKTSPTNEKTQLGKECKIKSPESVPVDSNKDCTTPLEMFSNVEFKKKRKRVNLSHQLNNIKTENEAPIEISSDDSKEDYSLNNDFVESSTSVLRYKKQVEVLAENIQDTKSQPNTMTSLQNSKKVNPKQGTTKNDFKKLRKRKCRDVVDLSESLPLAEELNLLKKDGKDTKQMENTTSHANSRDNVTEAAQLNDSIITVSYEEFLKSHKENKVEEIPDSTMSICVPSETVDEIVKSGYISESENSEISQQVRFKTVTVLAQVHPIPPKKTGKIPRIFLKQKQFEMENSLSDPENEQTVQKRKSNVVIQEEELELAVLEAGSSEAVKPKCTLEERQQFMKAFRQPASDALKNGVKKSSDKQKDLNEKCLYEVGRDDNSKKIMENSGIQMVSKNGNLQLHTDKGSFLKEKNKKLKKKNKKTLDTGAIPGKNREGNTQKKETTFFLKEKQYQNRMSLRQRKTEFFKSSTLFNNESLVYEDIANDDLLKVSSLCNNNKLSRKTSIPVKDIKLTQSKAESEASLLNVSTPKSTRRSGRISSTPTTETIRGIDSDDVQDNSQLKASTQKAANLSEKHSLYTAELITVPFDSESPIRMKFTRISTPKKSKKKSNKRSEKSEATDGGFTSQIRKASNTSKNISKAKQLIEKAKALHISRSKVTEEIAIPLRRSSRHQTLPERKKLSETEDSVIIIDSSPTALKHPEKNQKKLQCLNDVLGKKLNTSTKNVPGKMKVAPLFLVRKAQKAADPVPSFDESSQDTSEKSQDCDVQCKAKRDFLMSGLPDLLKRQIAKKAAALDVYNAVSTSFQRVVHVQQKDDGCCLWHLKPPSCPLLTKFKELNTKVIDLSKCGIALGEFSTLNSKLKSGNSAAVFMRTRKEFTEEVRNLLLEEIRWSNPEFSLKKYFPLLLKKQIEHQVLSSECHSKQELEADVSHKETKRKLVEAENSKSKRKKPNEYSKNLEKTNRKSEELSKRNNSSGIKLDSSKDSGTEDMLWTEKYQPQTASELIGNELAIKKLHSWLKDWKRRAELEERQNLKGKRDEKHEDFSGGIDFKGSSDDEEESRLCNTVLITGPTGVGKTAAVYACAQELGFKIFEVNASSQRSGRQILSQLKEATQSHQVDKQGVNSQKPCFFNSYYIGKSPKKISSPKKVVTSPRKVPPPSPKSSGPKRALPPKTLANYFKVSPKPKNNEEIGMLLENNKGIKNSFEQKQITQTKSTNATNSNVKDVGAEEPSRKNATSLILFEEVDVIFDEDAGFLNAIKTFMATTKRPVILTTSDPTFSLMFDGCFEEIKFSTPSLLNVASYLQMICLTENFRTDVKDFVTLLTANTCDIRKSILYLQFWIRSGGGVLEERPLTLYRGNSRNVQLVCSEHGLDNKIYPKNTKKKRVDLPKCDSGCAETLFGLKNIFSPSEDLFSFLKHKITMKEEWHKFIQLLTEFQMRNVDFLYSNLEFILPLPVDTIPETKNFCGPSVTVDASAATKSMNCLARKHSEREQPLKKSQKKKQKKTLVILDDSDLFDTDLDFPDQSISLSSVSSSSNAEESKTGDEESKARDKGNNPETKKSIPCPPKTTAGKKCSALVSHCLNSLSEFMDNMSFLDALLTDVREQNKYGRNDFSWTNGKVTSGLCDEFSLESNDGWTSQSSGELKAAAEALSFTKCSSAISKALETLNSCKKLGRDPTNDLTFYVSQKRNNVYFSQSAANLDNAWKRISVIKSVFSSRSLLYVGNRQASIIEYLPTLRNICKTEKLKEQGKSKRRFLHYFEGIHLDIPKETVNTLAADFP

For `O=C(c1ccc(Cl)c(S(=O)(=O)N2CCOCC2)c1)N1CCN(c2ccccc2)CC1`, which Potency [1] is on record?
The Potency was “inactive”.

What about the Potency [2] of the same compound?
The Potency was inconclusive: 28.1 µM [inhibitor, partial curve, poor fit].

What about the Potency [3] of the same compound?
Its Potency is “inactive”.

Which results are given for `COc1ccc(CCNc2nc(-c3cccnc3)nc3ccccc23)cc1OC`?
Potency [1]: inactive; Potency [2]: active: 3.15 µM; Potency [3]: inconclusive: 0.792 µM [rising, full curve, poor fit]; Potency [4]: inconclusive: 25 µM [cytotoxic, single point]; Potency [5]: inconclusive: 29.1 µM [inhibitor, partial curve, poor fit]

With `Cc1ccc(-c2csc(=Nc3cccnc3)n2CCCn2ccnc2)cc1C` as the compound, how does the Potency [1] read?
The Potency was inconclusive: 11.2 µM [inhibitor, partial curve].

And the Potency [2]?
The Potency was active: 3.97 µM.

For `CC1=C(C(=O)OCc2ccc3c(c2)OCO3)C(c2ccc(Cl)cc2)NC(=O)N1` (stereo unspecified), which Potency [1] is on record?
Its Potency is inconclusive: 0.889 µM [inhibitor, full curve].

What about the Potency [6] of the same compound?
The Potency was active: 0.889 µM.

And the Potency [3]?
Its Potency is “inactive”.

What about the Potency [4] of the same compound?
Its Potency is inconclusive: 15.8 µM [cytotoxic, partial curve].

For `COc1cc2[nH]c(=O)n(CCCCCC(=O)N3CCN(c4ccccc4)CC3)c(=O)c2cc1OC`, which Potency [1] is on record?
The Potency was inconclusive: 35.4 µM [inhibitor, partial curve, poor fit].

And the Potency [4]?
Its Potency is inconclusive: 31.5 µM [cytotoxic, partial curve, poor fit].

Which Potency [7] does the source give for `Cc1ccc(N2CN=c3s/c(=C\c4cccnc4)c(=O)n3C2)cc1` here?
The Potency was inconclusive: 10 µM [inhibitor, partial curve, poor fit].

And the Potency [1]?
The Potency was “inactive”.

And the Potency [2]?
The Potency was inconclusive: 3.54 µM [inhibitor, full curve].

What about the Potency [6] of the same compound?
The Potency was inconclusive: 14.1 µM [inhibitor, partial curve].

What about the Potency [3] of the same compound?
The Potency was “inactive”.

Which Potency [1] does the source give for `CCOC(=O)c1[nH]c2cc(OC)c(OC)cc2c1NC(=O)CN1CCN(c2ccc(OC)cc2)C(C)C1` (stereo unspecified) here?
Its Potency is inconclusive: 45.7 µM [inhibitor, partial curve, poor fit].

And the Potency [3]?
The Potency was inconclusive: 0.363 µM [rising, full curve].

And the Potency [4]?
Its Potency is inconclusive: 40.7 µM [cytotoxic, single point].

Which results are given for `CCCCCn1c(N)c(-c2nc3ccccc3s2)c2c([N+](=O)[O-])nn(C)c(=O)c21`?
Potency [1]: inconclusive: 35.4 µM [inhibitor, single point]; Potency [3]: inconclusive: 35.4 µM [cytotoxic, single point]

Which Potency [1] does the source give for `COc1ccc(Nc2nc(-c3ccncc3)nc3ccccc23)cc1` here?
Its Potency is “inactive”.

What about the Potency [3] of the same compound?
The Potency was inconclusive: 3.97 µM [rising, partial curve].

For `O=C(C1=C[C@H](c2ccc(Br)cc2)C[C@H](OCc2ccc(CO)cc2)O1)N1CCN(Cc2ccc3c(c2)OCO3)CC1`, which Potency [1] is on record?
Its Potency is inconclusive: 35.4 µM [inhibitor, partial curve, poor fit].

And the Potency [6]?
Its Potency is inconclusive: 35.4 µM [inhibitor, single point].

What about the Potency [3] of the same compound?
Its Potency is inconclusive: 3.54 µM [rising, partial curve, poor fit].

With `CCCCCn1c2c(c(=N)c3ccccc31)CCC2` as the compound, how does the Potency [1] read?
Its Potency is inconclusive: 14.1 µM [inhibitor, partial curve, poor fit].

And the Potency [2]?
Its Potency is active: 1.99 µM.

What does the source list for `Cc1c(CC(=O)N2CCN(C(=O)C3COc4ccccc4O3)CC2)c(=O)oc2c(C)c(O)ccc12` (stereo unspecified)?
Potency [1]: inactive; Potency [2]: active: 3.97 µM; Potency [6]: inconclusive: 25 µM [inhibitor, partial curve, poor fit]; Potency [3]: inconclusive: 0.281 µM [rising, full curve]

What does the source list for `COc1ccc(C(CNc2nc(-c3cccnc3)nc3ccccc23)N(C)C)cc1` (stereo unspecified)?
Potency [1]: inactive; Potency [6]: inconclusive: 28.1 µM [inhibitor, single point]

What does the source list for `O=C(CSc1nc2ccc(Nc3nc(N4CCOCC4)nc(N4CCOCC4)n3)cc2s1)Nc1ccccc1Cl`?
Potency [1]: inconclusive: 35.4 µM [inhibitor, partial curve, poor fit]; Potency [6]: inactive; Potency [3]: inconclusive: 1.26 µM [rising, full curve, poor fit]; Potency [4]: inactive

Which Potency [1] does the source give for `COc1ccc(N2CCN(C(=O)C3CCCN(c4ncnc5c4nc4n5CCCCC4)C3)CC2)cc1` (stereo unspecified) here?
Its Potency is “inactive”.

What about the Potency [6] of the same compound?
Its Potency is inconclusive: 22.3 µM [inhibitor, single point].

What about the Potency [3] of the same compound?
Its Potency is inconclusive: 2.5 µM [rising, full curve, poor fit].

What does the source list for `NC(=O)c1sc2nc3c(c(-c4cccs4)c2c1N)CCCCC3`?
Potency [1]: inconclusive: 1.12 µM [inhibitor, full curve]; Potency [4]: inactive

For `Cc1ccc(-c2csc3ncnc(N4CCN(C(=O)c5ccccc5)CC4)c23)cc1`, which Potency [1] is on record?
Its Potency is inconclusive: 35.4 µM [inhibitor, partial curve, poor fit].

What about the Potency [3] of the same compound?
The Potency was inconclusive: 35.4 µM [cytotoxic, partial curve, poor fit].

What about the Potency [4] of the same compound?
Its Potency is inconclusive: 31.5 µM [cytotoxic, single point].
